The text below walks through data of paper PMC6541620.

Chains of the proteins cited; added tags and fusions are not shown. Lines headed by an entry give the natural chain unless they say otherwise; changes in a name come on top. A line that says so, or that is headed by a name, gives the form on record, which may keep a tag or linker.
UniProt Q8TEP8: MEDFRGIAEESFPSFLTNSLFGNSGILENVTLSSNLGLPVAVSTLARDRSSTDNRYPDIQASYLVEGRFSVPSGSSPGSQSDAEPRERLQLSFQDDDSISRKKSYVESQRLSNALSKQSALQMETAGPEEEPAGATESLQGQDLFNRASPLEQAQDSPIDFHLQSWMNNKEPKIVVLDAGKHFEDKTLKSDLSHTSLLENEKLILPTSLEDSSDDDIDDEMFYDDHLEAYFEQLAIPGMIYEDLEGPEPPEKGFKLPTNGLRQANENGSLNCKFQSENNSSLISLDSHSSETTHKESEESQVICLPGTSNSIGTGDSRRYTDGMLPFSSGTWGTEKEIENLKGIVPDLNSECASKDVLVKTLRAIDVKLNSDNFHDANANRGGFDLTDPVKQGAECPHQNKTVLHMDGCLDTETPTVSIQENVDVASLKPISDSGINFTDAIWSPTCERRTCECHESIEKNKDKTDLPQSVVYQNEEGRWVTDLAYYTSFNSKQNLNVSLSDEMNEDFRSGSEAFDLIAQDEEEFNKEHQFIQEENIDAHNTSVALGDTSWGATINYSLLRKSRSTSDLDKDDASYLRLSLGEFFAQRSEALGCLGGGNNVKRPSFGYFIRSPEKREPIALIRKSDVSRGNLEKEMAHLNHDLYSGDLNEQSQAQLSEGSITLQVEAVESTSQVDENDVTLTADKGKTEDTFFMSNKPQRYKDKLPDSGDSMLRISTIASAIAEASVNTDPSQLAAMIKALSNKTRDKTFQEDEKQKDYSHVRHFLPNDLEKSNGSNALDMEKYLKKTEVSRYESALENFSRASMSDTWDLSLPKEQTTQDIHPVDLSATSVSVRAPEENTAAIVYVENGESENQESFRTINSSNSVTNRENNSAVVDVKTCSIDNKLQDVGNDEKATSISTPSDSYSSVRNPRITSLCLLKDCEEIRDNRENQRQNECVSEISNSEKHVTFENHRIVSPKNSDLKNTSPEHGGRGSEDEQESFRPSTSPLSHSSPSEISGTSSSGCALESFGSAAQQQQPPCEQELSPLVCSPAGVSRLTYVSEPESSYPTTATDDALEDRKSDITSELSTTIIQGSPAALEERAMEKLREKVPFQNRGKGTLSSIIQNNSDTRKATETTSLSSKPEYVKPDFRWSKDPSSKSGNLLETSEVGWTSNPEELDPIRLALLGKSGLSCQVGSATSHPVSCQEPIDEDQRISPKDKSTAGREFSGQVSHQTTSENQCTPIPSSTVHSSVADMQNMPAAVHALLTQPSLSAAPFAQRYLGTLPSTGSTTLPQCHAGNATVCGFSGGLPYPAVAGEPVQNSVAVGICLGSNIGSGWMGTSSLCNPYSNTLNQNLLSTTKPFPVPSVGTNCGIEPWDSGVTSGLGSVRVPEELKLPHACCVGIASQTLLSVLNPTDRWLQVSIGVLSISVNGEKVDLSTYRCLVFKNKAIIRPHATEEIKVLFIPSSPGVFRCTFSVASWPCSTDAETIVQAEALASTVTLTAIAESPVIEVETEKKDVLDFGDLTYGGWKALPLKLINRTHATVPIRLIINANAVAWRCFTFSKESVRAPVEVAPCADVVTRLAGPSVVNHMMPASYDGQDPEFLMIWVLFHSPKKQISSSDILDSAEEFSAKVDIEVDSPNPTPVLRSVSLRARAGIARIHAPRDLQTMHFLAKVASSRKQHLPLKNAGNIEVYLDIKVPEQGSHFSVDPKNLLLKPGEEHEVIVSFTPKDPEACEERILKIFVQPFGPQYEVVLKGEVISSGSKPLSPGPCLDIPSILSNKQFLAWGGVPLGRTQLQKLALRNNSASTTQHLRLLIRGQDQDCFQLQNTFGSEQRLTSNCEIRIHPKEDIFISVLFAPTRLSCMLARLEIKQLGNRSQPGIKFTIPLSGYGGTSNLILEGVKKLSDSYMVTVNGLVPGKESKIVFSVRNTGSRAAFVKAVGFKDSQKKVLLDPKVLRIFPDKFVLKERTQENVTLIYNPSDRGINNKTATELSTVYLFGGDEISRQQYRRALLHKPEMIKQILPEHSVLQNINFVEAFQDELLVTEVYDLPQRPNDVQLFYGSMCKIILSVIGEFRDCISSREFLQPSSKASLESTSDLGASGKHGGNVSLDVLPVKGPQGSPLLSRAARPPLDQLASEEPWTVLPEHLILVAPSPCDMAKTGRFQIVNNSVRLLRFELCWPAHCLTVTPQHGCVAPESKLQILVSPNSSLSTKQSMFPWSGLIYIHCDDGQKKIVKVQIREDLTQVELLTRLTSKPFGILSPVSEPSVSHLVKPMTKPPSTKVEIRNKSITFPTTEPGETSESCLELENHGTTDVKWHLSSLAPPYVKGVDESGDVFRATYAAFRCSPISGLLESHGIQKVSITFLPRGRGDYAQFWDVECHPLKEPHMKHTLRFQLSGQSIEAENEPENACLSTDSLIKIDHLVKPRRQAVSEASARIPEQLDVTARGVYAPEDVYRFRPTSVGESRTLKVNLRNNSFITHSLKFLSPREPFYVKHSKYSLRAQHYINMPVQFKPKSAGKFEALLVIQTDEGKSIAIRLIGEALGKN
CEP192 isoform-2 (1–1941) (Q8TEP8, form named): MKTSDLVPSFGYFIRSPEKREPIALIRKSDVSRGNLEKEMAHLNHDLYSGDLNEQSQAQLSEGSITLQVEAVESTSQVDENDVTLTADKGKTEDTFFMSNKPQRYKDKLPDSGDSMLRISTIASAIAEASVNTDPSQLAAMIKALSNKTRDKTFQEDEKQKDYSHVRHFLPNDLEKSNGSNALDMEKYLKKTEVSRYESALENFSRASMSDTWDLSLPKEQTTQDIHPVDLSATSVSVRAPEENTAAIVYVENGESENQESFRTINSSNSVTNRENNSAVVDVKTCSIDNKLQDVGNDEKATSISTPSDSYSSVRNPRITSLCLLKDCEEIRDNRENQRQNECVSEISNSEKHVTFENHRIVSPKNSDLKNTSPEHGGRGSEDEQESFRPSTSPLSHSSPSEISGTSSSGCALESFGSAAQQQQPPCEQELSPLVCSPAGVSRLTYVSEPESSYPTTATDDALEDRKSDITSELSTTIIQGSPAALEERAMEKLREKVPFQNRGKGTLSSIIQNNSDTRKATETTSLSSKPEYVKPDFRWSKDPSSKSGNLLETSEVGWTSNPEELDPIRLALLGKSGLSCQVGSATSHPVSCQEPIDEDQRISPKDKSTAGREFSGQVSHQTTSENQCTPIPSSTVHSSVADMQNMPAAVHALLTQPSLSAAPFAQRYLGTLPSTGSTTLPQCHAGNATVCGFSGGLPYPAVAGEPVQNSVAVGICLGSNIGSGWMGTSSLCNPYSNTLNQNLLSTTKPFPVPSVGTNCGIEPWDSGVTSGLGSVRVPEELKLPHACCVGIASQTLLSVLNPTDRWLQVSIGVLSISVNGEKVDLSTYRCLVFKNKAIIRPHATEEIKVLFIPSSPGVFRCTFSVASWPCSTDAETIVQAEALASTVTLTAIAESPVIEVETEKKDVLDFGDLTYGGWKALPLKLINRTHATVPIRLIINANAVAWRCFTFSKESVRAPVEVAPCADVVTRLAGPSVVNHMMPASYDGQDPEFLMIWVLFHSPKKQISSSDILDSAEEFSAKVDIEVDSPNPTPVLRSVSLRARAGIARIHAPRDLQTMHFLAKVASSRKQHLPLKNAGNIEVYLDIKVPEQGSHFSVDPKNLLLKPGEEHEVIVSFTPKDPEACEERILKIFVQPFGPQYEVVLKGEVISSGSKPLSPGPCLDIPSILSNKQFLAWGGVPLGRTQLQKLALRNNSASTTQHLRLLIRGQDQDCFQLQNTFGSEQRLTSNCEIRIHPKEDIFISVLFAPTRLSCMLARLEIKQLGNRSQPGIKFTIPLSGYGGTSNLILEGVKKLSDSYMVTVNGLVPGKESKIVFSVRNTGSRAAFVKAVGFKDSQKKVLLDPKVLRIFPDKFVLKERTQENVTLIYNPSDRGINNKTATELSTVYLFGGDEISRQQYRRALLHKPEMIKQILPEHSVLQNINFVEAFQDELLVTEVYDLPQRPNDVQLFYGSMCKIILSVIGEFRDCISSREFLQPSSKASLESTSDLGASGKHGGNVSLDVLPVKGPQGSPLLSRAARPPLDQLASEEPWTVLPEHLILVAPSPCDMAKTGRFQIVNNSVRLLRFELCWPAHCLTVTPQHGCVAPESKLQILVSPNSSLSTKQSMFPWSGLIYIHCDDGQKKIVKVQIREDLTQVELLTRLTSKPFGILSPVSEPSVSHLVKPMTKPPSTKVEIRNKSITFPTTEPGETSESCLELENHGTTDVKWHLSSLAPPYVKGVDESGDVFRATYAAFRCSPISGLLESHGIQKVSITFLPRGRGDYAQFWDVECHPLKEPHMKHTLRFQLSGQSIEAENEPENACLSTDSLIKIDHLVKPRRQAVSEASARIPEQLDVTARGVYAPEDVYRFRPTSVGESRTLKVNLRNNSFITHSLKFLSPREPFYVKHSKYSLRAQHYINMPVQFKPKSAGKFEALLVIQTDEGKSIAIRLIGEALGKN
UniProt Q9Y297: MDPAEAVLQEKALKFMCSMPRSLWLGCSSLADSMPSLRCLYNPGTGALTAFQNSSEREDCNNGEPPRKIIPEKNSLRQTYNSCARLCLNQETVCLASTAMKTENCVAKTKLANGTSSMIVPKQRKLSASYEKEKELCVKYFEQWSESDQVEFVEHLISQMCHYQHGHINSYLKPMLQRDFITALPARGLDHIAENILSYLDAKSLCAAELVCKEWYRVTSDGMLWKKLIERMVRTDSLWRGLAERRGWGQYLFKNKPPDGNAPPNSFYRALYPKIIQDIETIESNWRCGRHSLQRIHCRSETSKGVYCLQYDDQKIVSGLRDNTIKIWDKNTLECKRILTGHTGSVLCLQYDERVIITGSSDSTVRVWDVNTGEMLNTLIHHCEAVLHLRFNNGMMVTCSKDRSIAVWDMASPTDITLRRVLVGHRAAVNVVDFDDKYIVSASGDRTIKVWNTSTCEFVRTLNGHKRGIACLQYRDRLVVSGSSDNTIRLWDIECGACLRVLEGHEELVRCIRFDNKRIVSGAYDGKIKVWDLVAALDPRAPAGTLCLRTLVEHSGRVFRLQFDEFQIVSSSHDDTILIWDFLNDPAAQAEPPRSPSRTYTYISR
UniProt Q96GD4: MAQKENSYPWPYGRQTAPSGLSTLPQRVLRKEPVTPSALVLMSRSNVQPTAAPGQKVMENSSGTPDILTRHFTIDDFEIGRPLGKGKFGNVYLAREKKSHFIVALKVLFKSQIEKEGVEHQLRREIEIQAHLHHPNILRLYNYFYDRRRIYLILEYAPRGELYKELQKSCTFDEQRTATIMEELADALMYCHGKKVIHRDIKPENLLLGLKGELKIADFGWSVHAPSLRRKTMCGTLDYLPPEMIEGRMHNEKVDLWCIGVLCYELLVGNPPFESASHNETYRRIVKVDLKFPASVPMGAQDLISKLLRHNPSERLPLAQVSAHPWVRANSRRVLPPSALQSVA

Results are given in words; binding and its absence hold for the method and conditions named. For some assays here: In cells and extracts the contact can be indirect. Some binding calls cover weakened binding; strength is not graded here. For some assays here: Where a sequence is shown, tags or fusion partners need not be part of it.

Test [1] addresses T1, 3Flag-DVL2 N-terminal half (Δ361–736) (human) (UniProt O14641).
T1 sequence: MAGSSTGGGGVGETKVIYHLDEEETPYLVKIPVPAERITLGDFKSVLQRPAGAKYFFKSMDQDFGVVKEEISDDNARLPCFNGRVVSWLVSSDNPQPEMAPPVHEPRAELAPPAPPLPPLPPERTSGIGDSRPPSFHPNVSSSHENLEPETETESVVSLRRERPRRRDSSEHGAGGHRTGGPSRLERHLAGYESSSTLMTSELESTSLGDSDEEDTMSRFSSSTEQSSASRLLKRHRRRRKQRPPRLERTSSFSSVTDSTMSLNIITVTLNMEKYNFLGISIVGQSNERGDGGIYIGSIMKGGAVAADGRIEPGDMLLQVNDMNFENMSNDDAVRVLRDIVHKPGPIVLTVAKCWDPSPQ
Kind of test: co-IP; HEK293T co-transfected; lysis in TNTE 0.5% (50 mM Tris-HCl pH 7.4, 150 mM NaCl, 1 mM EDTA, 0.5% Triton X-100); M2 anti-Flag antibody and Protein G-Sepharose, 4 °C; HA-tagged partner detected by western blotting.

Test [2] concerns the target T2, 3Flag-DVL2 C-terminal half (Δ1–360) (human) (UniProt O14641).
T2 sequence: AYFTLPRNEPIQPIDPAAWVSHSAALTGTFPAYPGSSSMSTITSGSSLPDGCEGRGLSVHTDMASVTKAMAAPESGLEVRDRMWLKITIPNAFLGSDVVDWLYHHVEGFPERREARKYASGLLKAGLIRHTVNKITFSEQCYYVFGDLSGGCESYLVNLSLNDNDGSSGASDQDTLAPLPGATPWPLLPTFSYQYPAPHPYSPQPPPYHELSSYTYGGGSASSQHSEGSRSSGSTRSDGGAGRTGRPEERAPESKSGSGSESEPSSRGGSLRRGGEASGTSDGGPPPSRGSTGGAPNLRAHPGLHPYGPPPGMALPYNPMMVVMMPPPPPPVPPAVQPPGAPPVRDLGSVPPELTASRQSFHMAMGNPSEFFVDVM
Described as above.

Test [3] has as its target T1, 3Flag-DVL2 N-terminal half (Δ361–736) (human). Description: LUMIER (luminescence-based mammalian interactome; co-IP with luciferase read-out); HEK293T co-transfected in 96-well plates with a Renilla luciferase fusion and a Flag-tagged protein; after 48 h lysates immunoprecipitated in plates coated with M2 anti-Flag antibody; luciferase fusion detected with Renilla substrate; also done after CEP192 RNAi (Supplementary Fig. 8a).

The target in test [4] is CEP192 isoform-2 (1–1941) (human) (UniProt Q8TEP8). The description is as above.
In test [5] the target is CEP192 isoform-1 (AA 1–2537) (human) (UniProt Q8TEP8). Described as above.
The target in test [6] is T2, 3Flag-DVL2 C-terminal half (Δ1–360) (human). The description is as above.
The next test has as its target 3 Flag-BTRC (UniProt Q9Y297). Kind of test: co-IP; HEK293T transfected with 3HA-PLK4, 3 Flag-BTRC and increasing amounts of T7-DVL2-wt or T7-DVL2 (Δ361–736); anti-Flag immunoprecipitation; signal ratio HA-PLK4/3F-BTRC in the immunoprecipitates.
For test [7], the target named is T1, 3Flag-DVL2 N-terminal half (Δ361–736) (human). Kind of test: LUMIER (luminescence-based mammalian interactome; co-IP with luciferase read-out); HEK293T co-transfected in 96-well plates with a Renilla luciferase fusion and a Flag-tagged protein; after 48 h lysates immunoprecipitated in plates coated with M2 anti-Flag antibody; luciferase fusion detected with Renilla substrate; also done after CEP192 RNAi (Supplementary Fig. 8a). The source holds these as a separate data set.

Test [8] concerns the target T2, 3Flag-DVL2 C-terminal half (Δ1–360) (human). Described as above. This is another data set of the same source.

With 3HA-AURKB (from UniProt Q96GD4 1-344), the binding entry in test [1] and in test [2] was “no binding” each time.

“Renilla luciferase (RL)-AURKB (from UniProt Q96GD4 1-344)”: the binding result in test [3] is recorded as “no binding”; in test [4], “binds”; in test [5], “binds”; in test [6], “no binding”.

B1: 3HA-PLK4 (protein, UniProt O00444 1-970)
chain: MATCIGEKIEDFKVGNLLGKGSFAGVYRAESIHTGLEVAIKMIDKKAMYKAGMVQRVQNEVKIHCQLKHPSILELYNYFEDSNYVYLVLEMCHNGEMNRYLKNRVKPFSENEARHFMHQIITGMLYLHSHGILHRDLTLSNLLLTRNMNIKIADFGLATQLKMPHEKHYTLCGTPNYISPEIATRSAHGLESDVWSLGCMFYTLLIGRPPFDTDTVKNTLNKVVLADYEMPSFLSIEAKDLIHQLLRRNPADRLSLSSVLDHPFMSRNSSTKSKDLGTVEDSIDSGHATISTAITASSSTSISGSLFDKRRLLIGQPLPNKMTVFPKNKSSTDFSSSGDGNSFYTQWGNQETSNSGRGRVIQDAEERPHSRYLRRAYSSDRSGTSNSQSQAKTYTMERCHSAEMLSVSKRSGGGENEERYSPTDNNANIFNFFKEKTSSSSGSFERPDNNQALSNHLCPGKTPFPFADPTPQTETVQQWFGNLQINAHLRKTTEYDSISPNRDFQGHPDLQKDTSKNAWTDTKVKKNSDASDNAHSVKQQNTMKYMTALHSKPEIIQQECVFGSDPLSEQSKTRGMEPPWGYQNRTLRSITSPLVAHRLKPIRQKTKKAVVSILDSEEVCVELVKEYASQEYVKEVLQISSDGNTITIYYPNGGRGFPLADRPPSPTDNISRYSFDNLPEKYWRKYQYASRFVQLVRSKSPKITYFTRYAKCILMENSPGADFEVWFYDGVKIHKTEDFIQVIEKTGKSYTLKSESEVNSLKEEIKMYMDHANEGHRICLALESIISEEERKTRSAPFFPIIIGRKPGSTSSPKALSPPPSVDSNYPTRERASFNRMVMHSAASPTQAPILNPSMVTNEGLGLTTTASGTDISSNSLKDCLPKSAQLLKSVFVKNVGWATQLTSGAVWVQFNDGSQLVVQAGVSSISYTSPNGQTTRYGENEKLPDYIKQKLQCLSSILLMFSNPTPNFH
Consider B1, for which the binding entry in test [1] is recorded as “no binding”; in test [2], “no binding”; in the test with 3 Flag-BTRC it was “binds”.

B2: Renilla luciferase (RL)-PLK4 (protein, UniProt O00444 1-970)
chain: B1 chain
Turning to B2, the binding result in test [7] and in test [8] was “no binding” throughout.
